Test results as given in publication PMC9911399, “Two distinct binding modes provide the RNA-binding protein RbFox with extraordinary sequence specificity”.
Residue numbers refer to the chain shown, from its start. The list shows a part of the results.

T1: RBFOX1 RRM RbFoxmut (Fox-RRM*) (Homo sapiens, UniProt Q9NWB1 109-208, R118D;E147R;N151S;E152T)
T1 sequence: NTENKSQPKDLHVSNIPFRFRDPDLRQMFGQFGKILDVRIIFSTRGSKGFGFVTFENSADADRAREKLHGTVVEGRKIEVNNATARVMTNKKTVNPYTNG

B1: AUUAGCU (DNA:RNA)
RNA: GGGAGACCGGAAUUCAGAUUGUCCAUUAGCUUUAAAUCCCGUCGUAGCCACCA
DNA 1: CAATCTGAATTCCGGTCTCCC
DNA 2: TGGTGGCTACGACGGGATT
B2: CUUCACC (DNA:RNA)
RNA: B1 RNA with A25C, A28C, G29A, U31C
DNA 1: CAATCTGAATTCCGGTCTCCC
DNA 2: TGGTGGCTACGACGGGATT
B3: GUGCCUC (DNA:RNA)
RNA: B1 RNA with A25G, U27G, A28C, G29C, C30U, U31C
DNA 1: CAATCTGAATTCCGGTCTCCC
DNA 2: TGGTGGCTACGACGGGATT
B4: GUUAUUA (DNA:RNA)
RNA: B1 RNA with A25G, G29U, C30U, U31A
DNA 1: CAATCTGAATTCCGGTCTCCC
DNA 2: TGGTGGCTACGACGGGATT
B5: UAACGAC (DNA:RNA)
RNA: B1 RNA with A25U, U26A, U27A, A28C, C30A, U31C
DNA 1: CAATCTGAATTCCGGTCTCCC
DNA 2: TGGTGGCTACGACGGGATT
B6: CUAAUCA (DNA:RNA)
RNA: B1 RNA with A25C, U27A, G29U, U31A
DNA 1: CAATCTGAATTCCGGTCTCCC
DNA 2: TGGTGGCTACGACGGGATT
B7: UUCUGAU (DNA:RNA)
RNA: B1 RNA with A25U, U27C, A28U, C30A
DNA 1: CAATCTGAATTCCGGTCTCCC
DNA 2: TGGTGGCTACGACGGGATT
B8: AACACUC (DNA:RNA)
RNA: B1 RNA with U26A, U27C, G29C, C30U, U31C
DNA 1: CAATCTGAATTCCGGTCTCCC
DNA 2: TGGTGGCTACGACGGGATT
B9: UUCAAUA (DNA:RNA)
RNA: B1 RNA with A25U, U27C, G29A, C30U, U31A
DNA 1: CAATCTGAATTCCGGTCTCCC
DNA 2: TGGTGGCTACGACGGGATT
B10: UGCGAGC (DNA:RNA)
RNA: GGGAGACCGGAAUUCAGAUUGUCCUGCGAGCUUAAAUCCCGUCGUAGCCACCA
DNA 1: CAATCTGAATTCCGGTCTCCC
DNA 2: TGGTGGCTACGACGGGATT
B11: ACGACGU (DNA:RNA)
RNA: B1 RNA with U26C, U27G, G29C, C30G
DNA 1: CAATCTGAATTCCGGTCTCCC
DNA 2: TGGTGGCTACGACGGGATT
B12: ACCUACC (DNA:RNA)
RNA: B10 RNA with U25A, G26C, G28U, G30C
DNA 1: CAATCTGAATTCCGGTCTCCC
DNA 2: TGGTGGCTACGACGGGATT
B13: CCCCUGC (DNA:RNA)
RNA: B10 RNA with U25C, G26C, G28C, A29U
DNA 1: CAATCTGAATTCCGGTCTCCC
DNA 2: TGGTGGCTACGACGGGATT
B14: AUCCUGC (DNA:RNA)
RNA: B10 RNA with U25A, G26U, G28C, A29U
DNA 1: CAATCTGAATTCCGGTCTCCC
DNA 2: TGGTGGCTACGACGGGATT
B15: GCGAUAC (DNA:RNA)
RNA: B1 RNA with A25G, U26C, U27G, G29U, C30A, U31C
DNA 1: CAATCTGAATTCCGGTCTCCC
DNA 2: TGGTGGCTACGACGGGATT
B16: GCAAUAU (DNA:RNA)
RNA: B1 RNA with A25G, U26C, U27A, G29U, C30A
DNA 1: CAATCTGAATTCCGGTCTCCC
DNA 2: TGGTGGCTACGACGGGATT
B17: GCUAUAU (DNA:RNA)
RNA: B1 RNA with A25G, U26C, G29U, C30A
DNA 1: CAATCTGAATTCCGGTCTCCC
DNA 2: TGGTGGCTACGACGGGATT
B18: AUGCGAA (DNA:RNA)
RNA: B1 RNA with U27G, A28C, C30A, U31A
DNA 1: CAATCTGAATTCCGGTCTCCC
DNA 2: TGGTGGCTACGACGGGATT
B19: AACGGCA (DNA:RNA)
RNA: B1 RNA with U26A, U27C, A28G, U31A
DNA 1: CAATCTGAATTCCGGTCTCCC
DNA 2: TGGTGGCTACGACGGGATT
B20: UGUUCUC (DNA:RNA)
RNA: B10 RNA with C27U, G28U, A29C, G30U
DNA 1: CAATCTGAATTCCGGTCTCCC
DNA 2: TGGTGGCTACGACGGGATT

What follows are binders tested against T1, RBFOX1 RRM RbFoxmut (Fox-RRM*) (assay: EMSA; HiTS-Eq, 1 nM pool, 10 min; buffer printed only for the single-RNA assays: 10 mM Tris pH 7.5, 150 mM NaCl, 3.4 mM EDTA, 0.001% NP-40, 30 C). Settings: tags: His6 N-terminal (pET28a); label: 5' 32P.
Outline: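 A pool of RNA with 7 randomized nucleotides, 5′-radiolabelled and with DNA-annealed flanks, was equilibrated at 1 nM for 10 min in 50 µL with purified RbFox RRM, wild type or mutant, across increasing protein concentrations. Free RNA was separated by 8% native PAGE, excised, reverse-transcribed, barcoded by PCR and sequenced. Relative association constants were obtained from read-count changes of each RNA species versus the control reaction and normalised to the cognate motif.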
In the case of B1, the binding signal is reported as 0.141 KA relative to UGCAUGU. B2 was tested, and the binding signal was 0.0684 KA relative to UGCAUGU. In the case of B3, the binding signal is reported as 0.105 KA relative to UGCAUGU. For B4, the binding signal was 0.132 KA relative to UGCAUGU. For B5, the binding signal was 0.0505 KA relative to UGCAUGU. For B6, the binding signal was 0.0869 KA relative to UGCAUGU. In the case of B7, the binding signal is reported as 0.0736 KA relative to UGCAUGU. B8 was tested, and the binding signal was 0.0249 KA relative to UGCAUGU. With B9 the binding signal was 0.094 KA relative to UGCAUGU. For B10, the binding signal was 0.112 KA relative to UGCAUGU. B11 was tested, and the binding signal was 0.105 KA relative to UGCAUGU. In the case of B12, the binding signal is reported as 0.07 KA relative to UGCAUGU. B13 was tested, and the binding signal was 0.0955 KA relative to UGCAUGU. In the case of B14, the binding signal is reported as 0.118 KA relative to UGCAUGU. In the case of B15, the binding signal is reported as 0.057 KA relative to UGCAUGU. B16 was tested, and the binding signal was 0.0925 KA relative to UGCAUGU. In the case of B17, the binding signal is reported as 0.115 KA relative to UGCAUGU. In the case of B18, the binding signal is reported as 0.131 KA relative to UGCAUGU. In the case of B19, the binding signal is reported as 0.115 KA relative to UGCAUGU. For B20, the binding signal was 0.0604 KA relative to UGCAUGU.
